{"source": "the supplement of paper PMC2702839", "note": "Structures can show the parent of a compound that is named as a salt. Some of the results follow.", "data": [{"system": "Schistosoma mansoni schistosomula", "experiment": "phenotypic hit in primary schistosomula screen (any phenotype vs DMSO control) (binary (1 = hit, 0 = no phenotype)); higher = active (phenotype induced)", "conditions": "1 µM; time (d): 7", "values": [{"smiles": "CCC1(c2ccccc2)NC(=O)N(C)C1=O", "note": "(stereo not given) [mephentoin]", "phenotypic hit": "inactive: 0"}, {"smiles": "N[C@@H](CCC(=O)N[C@@H](CS)C(=O)NCC(=O)O)C(=O)O", "note": "[glutathione]", "phenotypic hit": "inactive: 0"}, {"smiles": "CC1=C(C(=O)O)N2C(=O)[C@@H](NC(=O)[C@H](N)C3=CCC=CC3)[C@H]2SC1", "note": "[cephradine]", "phenotypic hit": "inactive: 0"}, {"smiles": "COc1cc2c3cc1Oc1cc(ccc1O)C[C@@H]1c4c(cc(OC)c(O)c4Oc4ccc(cc4)C[C@@H]3N(C)CC2)CC[N+]1(C)C", "note": "[tubocurarine chloride]", "phenotypic hit": "inactive: 0"}, {"smiles": "CC(=O)O[C@@H]1c2c(ccc3ccc(=O)oc23)OC(C)(C)[C@@H]1OC(=O)CC(C)C", "note": "[dihydrosamidin]", "phenotypic hit": "inactive: 0"}, {"smiles": "C[C@]12CC[C@@H]3c4ccc(O)cc4CC[C@H]3[C@@H]1CC[C@@H]2O", "note": "[estradiol]", "phenotypic hit": "inactive: 0"}, {"smiles": "CCN(CC)C(=O)c1cccc(C)c1", "note": "[deet]", "phenotypic hit": "inactive: 0"}, {"smiles": "CCCN(CCC)S(=O)(=O)c1ccc(C(=O)O)cc1", "note": "[probenecid]", "phenotypic hit": "inactive: 0"}, {"smiles": "C=C1CCC(OC(C)=O)/C(C)=C/C[C@@H]2[C@@H]1CC2(C)C", "note": "(stereo not given in full) [caryophyllenyl acetate]", "phenotypic hit": "inactive: 0"}, {"smiles": "COc1ccc(-c2coc3c(O)c(OC)ccc3c2=O)cc1", "note": "[retusin 7-methyl ether]", "phenotypic hit": "inactive: 0"}, {"smiles": "C/C1=C\\CC(C)(C)/C=C/CC2(C)OC2CC1", "note": "(stereo not given) [epoxy (1,11)humulene]", "phenotypic hit": "inactive: 0"}, {"smiles": "NCCCCCCNS(=O)(=O)c1cccc2c(Cl)cccc12", "note": "[W-7 hydrochloride]", "phenotypic hit": "inactive: 0"}, {"smiles": "CN(C)CCOC(c1ccccc1)c1ccccc1", "note": "[Diphenhydramine hydrochloride]", "phenotypic hit": "inactive: 0"}, {"smiles": "CC(=O)[C@H]1CC[C@H]2[C@@H]3CCC4=CC(=O)CC[C@]4(C)[C@H]3CC[C@]12C", "note": "[progesterone]", "phenotypic hit": "inactive: 0"}, {"smiles": "CC(=O)O[C@H]1C[C@@H](OC(C)=O)C(C)(C)[C@@H]2C[C@@H](OC(C)=O)[C@]3(C)[C@H](CC[C@@]4(C)[C@H](c5ccoc5)OC(=O)[C@H]5O[C@@]534)[C@@]12C", "note": "[khivorin]", "phenotypic hit": "inactive: 0"}, {"smiles": "CN(C)CC/C=C1/c2ccccc2Sc2ccc(Cl)cc21", "note": "[Chlorprothixene hydrochloride]", "phenotypic hit": "active: 1"}, {"smiles": "NC(Cc1cc(I)c(Oc2cc(I)c(O)c(I)c2)c(I)c1)C(=O)O", "note": "(stereo not given) [thyroxine]", "phenotypic hit": "inactive: 0"}, {"smiles": "Cc1cc(=O)oc2cc(O)c(O)cc12", "note": "[4-methylesculetin]", "phenotypic hit": "inactive: 0"}, {"smiles": "COc1cc2c(cc1O)C(Cc1ccc(O)cc1)N(C)CC2", "note": "(stereo not given) [methyl coclaurine]", "phenotypic hit": "inactive: 0"}, {"smiles": "COc1cc(OC)cc(OC)c1", "note": "[1,3,5-trimethoxybenzene]", "phenotypic hit": "inactive: 0"}, {"smiles": "CNCc1ccccc1", "note": "[n-methylbenzylamine hydrochloride]", "phenotypic hit": "inactive: 0"}, {"smiles": "COc1cc(OC)c2c(=O)c(O)c(-c3ccc(OC)c(OC)c3)oc2c1", "note": "[quercetin tetramethyl (5,7,3',4') ether]", "phenotypic hit": "inactive: 0"}, {"smiles": "O=C(O)CCCCCCCCCCCC[C@@H]1C=CCC1", "note": "[chaulmoogric acid]", "phenotypic hit": "inactive: 0"}, {"smiles": "C=CC1=C(C)c2cc3[nH]c(cc4nc(cc5[nH]c(cc1n2)c(C)c5CCC(=O)O)C(CCC(=O)O)=C4C)c(C)c3C=C", "note": "[protoporphyrin ix]", "phenotypic hit": "inactive: 0"}, {"smiles": "CN(C)CCN(Cc1ccccc1)c1ccccn1", "note": "[Tripelennamine hydrochloride]", "phenotypic hit": "inactive: 0"}, {"smiles": "Clc1ccc(CSC(Cn2ccnc2)c2ccc(Cl)cc2Cl)cc1", "note": "(stereo not given) [sulconazole nitrate]", "phenotypic hit": "inactive: 0"}, {"smiles": "Nc1ncnc2c1ncn2[C@@H]1O[C@H](CO)[C@@H](O)[C@H]1O", "note": "[adenosine]", "phenotypic hit": "inactive: 0"}, {"smiles": "COc1ccc2c(c1)OCC(Cc1ccc(O)c(OC)c1)C2=O", "note": "(stereo not given) [deoxysappanone b 7,3'-dimethyl ether]", "phenotypic hit": "inactive: 0"}, {"smiles": "C[n+]1cc2c3c(ccc2c2ccc4cc5c(cc4c21)OCO5)OCO3", "note": "[Sanguinarine chloride]", "phenotypic hit": "active: 1"}, {"smiles": "CN1CCc2c(c3ccccc3n2Cc2ccccc2)C1", "note": "[mebhydrolin naphthalenesulfonate]", "phenotypic hit": "inactive: 0"}, {"smiles": "Fc1ccc(C(c2ccc(F)cc2)N2CCN(C/C=C/c3ccccc3)CC2)cc1", "note": "[Flunarizine dihydrochloride]", "phenotypic hit": "inactive: 0"}, {"smiles": "CCCCC(=O)O[C@H]1CC[C@H]2[C@@H]3CCc4cc(O)ccc4[C@H]3CC[C@]12C", "note": "[estradiol valerate]", "phenotypic hit": "inactive: 0"}, {"smiles": "COc1ccc(/C=C/C(=O)O)cc1OC", "note": "[dimethylcaffeic acid]", "phenotypic hit": "active: 1"}, {"smiles": "N=C(N)c1ccc(OCCCCCOc2ccc(C(=N)N)cc2)cc1", "note": "[Pentamidine isethionate]", "phenotypic hit": "inactive: 0"}, {"smiles": "O=C(OC[C@H]1O[C@@H](OC(=O)c2cc(O)c(O)c(OC(=O)c3cc(O)c(O)c(O)c3)c2)[C@H](OC(=O)c2cc(O)c(O)c(OC(=O)c3cc(O)c(O)c(O)c3)c2)[C@@H](OC(=O)c2cc(O)c(O)c(OC(=O)c3cc(O)c(O)c(O)c3)c2)[C@@H]1OC(=O)c1cc(O)c(O)c(OC(=O)c2cc(O)c(O)c(O)c2)c1)c1cc(O)c(O)c(OC(=O)c2cc(O)c(O)c(O)c2)c1", "note": "[tannic acid]", "phenotypic hit": "inactive: 0"}, {"smiles": "Cc1cc(O)c(C)c(O)c1C(=O)O", "note": "[3-methylorsellinic acid]", "phenotypic hit": "inactive: 0"}, {"smiles": "CC1(C)S[C@@H]2[C@H](NC(=O)[C@H](N)c3ccc(O)cc3)C(=O)N2[C@H]1C(=O)O", "note": "[amoxicillin]", "phenotypic hit": "inactive: 0"}, {"smiles": "COc1cc(-c2coc3cc(OCc4ccccc4)c(OC)c(O)c3c2=O)cc(OCc2ccccc2)c1OC", "note": "[irigenin, dibenzyl ether]", "phenotypic hit": "inactive: 0"}, {"smiles": "Cc1cccc(C(=O)O)c1O", "note": "[hydroxytoluic acid]", "phenotypic hit": "inactive: 0"}, {"smiles": "CN[C@@H]1[C@H](O[C@H]2[C@H](O[C@H]3[C@H](O)[C@@H](O)[C@H](N=C(N)N)[C@@H](O)[C@@H]3N=C(N)N)O[C@@H](C)[C@]2(O)C=O)O[C@@H](CO)[C@H](O)[C@H]1O", "note": "[streptomycin sulfate]", "phenotypic hit": "inactive: 0"}, {"smiles": "CC1(C)C(=O)C=C[C@]2(C)[C@H]3CC[C@@]4(C)[C@H](c5ccoc5)OC(=O)[C@H]5O[C@]54[C@]3(C)C(=O)C[C@@H]12", "note": "[deacetoxy-7-oxogedunin]", "phenotypic hit": "inactive: 0"}, {"smiles": "OC1=Cc2c(O)cc(O)cc2OC1(O)c1ccc(O)c(O)c1", "note": "(stereo not given) [2,3,5,7,3',4'-pentahydroxyflavan]", "phenotypic hit": "inactive: 0"}, {"smiles": "C[C@]12CCC(=O)C=C1CC[C@@H]1[C@@H]2[C@@H](O)C[C@@]2(C)[C@H]1CC[C@]2(O)C(=O)CO", "note": "[hydrocortisone]", "phenotypic hit": "inactive: 0"}, {"smiles": "Oc1ncnc2[nH]ncc12", "note": "[Allopurinol]", "phenotypic hit": "inactive: 0"}, {"smiles": "COC(=O)CC1C(C)(C)C(=O)C2CC3(O)C4=CC(=O)OC(c5ccoc5)C4(C)CCC3C1(C)C2=O", "note": "(stereo not drawn) [8beta-hydroxycarapin]", "phenotypic hit": "inactive: 0"}, {"smiles": "CN(N=O)C(=O)N[C@H]1C(O)O[C@H](CO)[C@@H](O)[C@@H]1O", "note": "(mixture of isomers) [streptozosin]", "phenotypic hit": "inactive: 0"}, {"smiles": "CCCc1cc(=O)[nH]c(=S)[nH]1", "note": "[propylthiouracil]", "phenotypic hit": "inactive: 0"}, {"smiles": "Cc1onc(-c2ccccc2)c1-c1ccc(S(N)(=O)=O)cc1", "note": "[valdecoxib]", "phenotypic hit": "inactive: 0"}, {"smiles": "O=C(O[C@@H]1Cc2c(O)cc(O)cc2O[C@@H]1c1cc(O)c(O)c(O)c1-c1c([C@H]2Oc3cc(O)cc(O)c3C[C@H]2O)cc(O)c(O)c1O)c1cc(O)c(O)c(O)c1", "note": "[2',2'-bisepigallocatechin monogallate]", "phenotypic hit": "inactive: 0"}, {"smiles": "C[N+]1(CCCCC[N+]2(C)CCCC2)CCCC1", "note": "[pentolinium tartrate]", "phenotypic hit": "inactive: 0"}, {"smiles": "Cc1cc(C(C)(C)C)c(O)c(C)c1CC1=NCCN1", "note": "[Oxymetazoline hydrochloride]", "phenotypic hit": "inactive: 0"}, {"smiles": "CC(=O)OC1CCC2(C)C(CCC3C2CCC2(C)C3CC3OC4(CCC(C)CO4)C(C)C32)C1", "note": "(stereo not given) [neotigogenin acetate]", "phenotypic hit": "inactive: 0"}, {"smiles": "CN(C)CCCN1c2ccccc2Sc2ccccc21", "note": "[promazine hydrochloride]", "phenotypic hit": "active: 1"}, {"smiles": "C=CC(C1=CC(=O)C=CC1=O)c1ccccc1", "note": "(stereo not given) [dalbergione]", "phenotypic hit": "inactive: 0"}, {"smiles": "C[N+]1(C)C[C@H](O)C[C@H]1C(=O)[O-]", "note": "[betonicine]", "phenotypic hit": "inactive: 0"}, {"smiles": "COc1ccc([C@@H]2CC(=O)c3c(O)cc(O[C@@H]4O[C@H](CO[C@@H]5O[C@@H](C)[C@H](O)[C@@H](O)[C@H]5O)[C@@H](O)[C@H](O)[C@H]4O)cc3O2)cc1O", "note": "[hesperidin]", "phenotypic hit": "inactive: 0"}, {"smiles": "COc1c2ccoc2c(OC)c2oc(=O)ccc12", "note": "[isopimpinellin]", "phenotypic hit": "inactive: 0"}, {"smiles": "COc1ccc2c(c1)OC1(O)COc3cc(OC)c(OC)cc3C1=C2", "note": "(stereo not given) [12a-hydroxy-5-deoxydehydromunduserone]", "phenotypic hit": "inactive: 0"}, {"smiles": "C[N+]1(C)[C@@H]2CC[C@H]1C[C@@H](OC(=O)C(O)c1ccccc1)C2", "note": "(stereo not given in full) [homatropine methylbromide]", "phenotypic hit": "inactive: 0"}, {"smiles": "COc1ccc2c(=O)c(-c3cc4c(cc3OC)OCO4)coc2c1", "note": "[cuneatin methyl ether]", "phenotypic hit": "inactive: 0"}, {"smiles": "COc1ccc(-c2cc(=O)c3c(O)cc(O)c(-c4cc(-c5cc(=O)c6c(O)cc(O)cc6o5)ccc4OC)c3o2)cc1", "note": "[isoginkgetin]", "phenotypic hit": "inactive: 0"}, {"smiles": "CC(=O)Nc1ccccc1", "note": "[acetanilide]", "phenotypic hit": "inactive: 0"}, {"smiles": "COC(=O)[C@H]1[C@H]2C[C@H]3c4[nH]c5ccccc5c4CCN3C[C@@H]2CC[C@@H]1O", "note": "[corynanthine]", "phenotypic hit": "inactive: 0"}, {"smiles": "CSc1ccc2c(c1)C(N1CCN(C)CC1)Cc1ccccc1S2", "note": "(stereo not given) [Methiothepin mesylate]", "phenotypic hit": "inactive: 0"}, {"smiles": "NC(=O)c1cc[n+](CC2=C(C(=O)O)N3C(=O)[C@@H](NC(=O)[C@@H](c4ccccc4)S(=O)(=O)[O-])[C@H]3SC2)cc1", "note": "[cefsulodin sodium]", "phenotypic hit": "inactive: 0"}]}]}
